# Source: paper PMC6919601, “Identification of Plasmodium dipeptidyl aminopeptidase allosteric inhibitors by high throughput screening” (PLoS ONE, 2019)
# Out of some 110,000 compounds screened, about 230 (0.21%) showed an effect of 50% or more. The list shows a part of the results.
# Target: DPAP1 (Plasmodium falciparum, UniProt Q8IIJ9)
# Experiment: primary screen, percent inhibition; read by cleavage of a fluorogenic dipeptide substrate; higher = more effect of the substance
# Set-up: species or system P. falciparum D10 trophozoite lysates; single well
# 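Further: 30 min substrate incubation versus DMSO and 10 µM JCP410 controls.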
# Sequence of DPAP1 (Q8IIJ9 whole entry, looked up): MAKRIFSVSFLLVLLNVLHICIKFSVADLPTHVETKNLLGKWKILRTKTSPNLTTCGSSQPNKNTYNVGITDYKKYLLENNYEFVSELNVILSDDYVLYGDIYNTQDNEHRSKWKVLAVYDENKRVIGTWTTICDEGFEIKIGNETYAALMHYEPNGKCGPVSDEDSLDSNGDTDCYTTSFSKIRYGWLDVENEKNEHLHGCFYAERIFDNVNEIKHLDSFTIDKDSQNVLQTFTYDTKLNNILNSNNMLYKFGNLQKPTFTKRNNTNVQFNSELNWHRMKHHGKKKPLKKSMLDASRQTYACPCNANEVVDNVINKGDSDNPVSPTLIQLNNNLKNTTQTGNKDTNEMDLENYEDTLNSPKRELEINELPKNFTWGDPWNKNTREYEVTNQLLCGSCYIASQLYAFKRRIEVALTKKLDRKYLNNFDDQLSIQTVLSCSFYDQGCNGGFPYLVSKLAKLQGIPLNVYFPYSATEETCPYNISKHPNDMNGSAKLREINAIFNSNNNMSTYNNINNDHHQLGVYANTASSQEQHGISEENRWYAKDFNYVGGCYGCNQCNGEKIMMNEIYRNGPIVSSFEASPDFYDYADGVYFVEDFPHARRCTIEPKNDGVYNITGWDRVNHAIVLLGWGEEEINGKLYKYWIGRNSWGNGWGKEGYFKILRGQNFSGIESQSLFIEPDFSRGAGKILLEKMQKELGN
row,SMILES,% Inhibition @ 10 uM [%]
1,CCSc1cc(N2CCOCC2)nc(-c2ccc(Cl)cc2)n1,0.361
2,COc1cccc(C2CC(=O)NC(SCC(=O)Nc3ccccc3C)=C2C#N)c1OC (stereo not shown),2.44
3,N#Cc1ccc(-c2ccccc2)nc1SCCN1CCOCC1,-1.37
4,Cc1cnc(C)c(N[C@H]2CCCCNC2=O)n1,-1.2
5,CC(C)Oc1ccc(C(=O)N(Cc2ccco2)Cc2ccccc2Cl)cc1,-2.21
6,CN(C(=O)Cn1nnc2sc3c(c2c1=O)CCC(C(C)(C)C)C3)C1CCCCC1 (stereo not shown),2.41
7,CC(C)C[C@H](NC(=O)OCN1C(=O)c2ccccc2C1=O)C(=O)NCC#N,-3.04
8,COc1ccccc1C(=O)N1CCN(c2ccccc2F)CC1,-7.32
9,O=C(Nc1ccc(Cl)cn1)c1ccccc1-c1ccccc1,-1.28
10,COc1ccc(CNC(=O)C2CCCN(S(=O)(=O)N3CCC(C)CC3)C2)c(OC)c1 (stereo not shown),-1.34
11,O=C(O)c1ccc(NC(=O)C2CC=CCC2C(=O)O)cc1O (stereo not shown),-3.78
12,O=c1c2ccccc2ncn1CCOCCSc1ccc(Cl)cc1,1.17
13,CCOc1cc(Br)c(C(C)NC(=O)c2cccc(OC)c2)cc1OCC (stereo not shown),2.17
14,CCOCC(=O)Nc1ccc(S(=O)(=O)Nc2nccs2)cc1,4.11
15,Cn1c(=O)c2c(nc(Sc3ncnn3CC(=O)NC(C)(C)C)n2C)n(C)c1=O,16.7
16,C=Cc1ccc(Cn2c(C)c(CNCCc3ccc(OC)c(OC)c3OC)c(C(=O)O)c2C)cc1,8.86
17,COc1cccc(OC)c1C(=O)Nc1ncccn1,6.57
18,Cc1cccc(NC(=O)CN2C(=O)N/C(=C/c3ccc(-c4ccc(C(=O)O)cc4)o3)C2=O)c1,21.2
19,NC(=O)c1cc(S(=O)(=O)N(Cc2ccco2)CC2CCCO2)cs1 (stereo not shown),0.359
20,CCOC(=O)N1CCN(C(=O)c2ccc3nc(C)sc3c2)CC1,-1.27
21,CCc1ccc(CNC(=O)NCc2noc3ccc(C)cc23)cc1,2.19
22,CCc1nnc(NC(=O)NCc2noc3ccccc23)s1,11.1

row,SMILES,% Inhibition @ 10 uM [%]
1,CCOC(=O)C(O)(c1ccc(C)o1)C(F)(F)F (stereo not shown),-0.239
2,CCN(CCCNC(=O)C1CCN(C(=O)c2cc3sccc3n2C)CC1)Cc1ccccc1,0.137
3,O=C(CC(Nc1cccc2c1-c1ccccc1C2)c1ccccc1)c1ccccc1 (stereo not shown),0.132
4,COc1cc(/C=C2\S/C(=N/c3ccc(C(=O)O)cc3)N(C)C2=O)cc(OC)c1OC,4.3
5,Cc1ccc(O)c(NC(=O)CSc2ccc(Cl)cc2)c1,1.87
6,O=C1c2ccc(Oc3ccc4c(c3)C(=O)N(CCCO)C4=O)cc2C(=O)N1CCCO,-2.16
7,COc1cc2c(cc1OC)C(c1ccc(Cl)cc1)NC(=O)C2 (stereo not shown),-4.03
8,COc1cccc(N2CCN(C3CC(=O)N(c4cc(Cl)ccc4C)C3=O)CC2)c1 (stereo not shown),-5.1
9,CCc1nnc(NS(=O)(=O)c2ccc(NC(=S)NC(=O)/C=C/c3ccco3)cc2)s1,0.0345
10,COc1cc(CNCc2cccnc2)cc(Br)c1OCC(N)=O,-0.0555
11,CS(=O)(=O)N(CC(=O)NCc1ccc(Cl)cc1)c1cccc2ccccc12,-3.38
12,O=C(NCc1cccnc1)c1ccc(Br)cc1,-2.22
13,Cc1nn(Cc2ccccc2)c(C)c1NC(=O)c1cc(-c2ccc(O)cc2)on1,-1.28
14,CC1CCN(C(=O)Cn2cnc3c(nnn3-c3ccc(F)cc3)c2=O)CC1,-2.16
15,COc1cccc(C2Nc3cccc4cccc(c34)N2)c1OC,-0.305
16,CCOc1ccc2c(=O)c(Oc3ccccc3CC)coc2c1,-4.85
17,CCOC(=O)c1cc(-c2ccc(C)cc2)n(CCC(=O)Nc2ncccc2C)c1C,1.72
18,O=C(O)c1cn(-c2ccccc2)nc1-c1ccccc1,-0.128
19,Cc1ccc(-c2c(C#N)c(N)nc3c2CCCCC3)c(C)c1,-2.44
20,Cc1scc(CN(Cc2ccccc2)C(C)C)c1C,-6.05
21,CCS(=O)(=O)C1=NN2C(=N)/C(=C\c3ccc(OS(C)(=O)=O)c(Cl)c3)C(=O)N=C2S1,0.208
22,COc1ccc(S(=O)(=O)NCCc2ccc(S(N)(=O)=O)cc2)cc1,-6.81

row,SMILES,% Inhibition @ 10 uM [%]
1,CCC(=O)Nc1sc2c(c1C#N)CC(C)(C)NC2(C)C,-0.941
2,CCOc1ccccc1OCc1nn2c(Cc3ccccc3)nnc2s1,10.8
3,N#CCc1nc2cc(C(=O)O)ccc2[nH]1,-8.41
4,COc1ccccc1C(=O)Nc1cc(C)cc(C)n1,-1.42
5,N#CCNC(=O)C(CC1CCN(c2nccs2)CC1)NC(=O)c1ccccc1 (stereo not shown),-6.98
6,CO/C(O)=C/C1=NC2CCCCC2NC1=O (stereo not shown),0.778
7,CCCCNC(=O)C(CC)n1nc(C)c2sc3ccccc3c2c1=O (stereo not shown),-2.61
8,CC(C)(C)C1CCc2c(sc3nc(SCC(N)=O)nc(N)c23)C1 (stereo not shown),-2.6
9,Cc1noc(/C=C/N(C)C)c1S(=O)(=O)N1CCCC(C(=O)NCCC2=CCCCC2)C1 (stereo not shown),9.33
10,COc1ccc(S(=O)(=O)Nc2ccc(C)cn2)cc1,-5.48
11,Cc1cc(NC(=O)C2CCCN2S(=O)(=O)c2cccc3nsnc23)no1 (stereo not shown),-2.25
12,CC(C)CS(=O)(=O)c1oc(-c2ccc(F)cc2)nc1S(=O)(=O)c1ccc(F)cc1,3.74
13,COc1ccc(CN2CCCN(C)CC2)cc1OC,-0.261
14,CCN1CCN(C(=O)c2cc(C)nn2-c2ccccc2)CC1,-1.89
15,O=C1c2cccnc2C(=O)N1Cc1ccc(S(=O)(=O)N2CCN(C3CCCCC3)CC2)s1,-6.11
16,Cc1s/c(=N\C(=O)c2ccco2)n(C)c1-c1ccccc1,0.108
17,FC(F)Oc1cc(Cl)ccc1C1=CC(c2ccc(Cl)cc2)n2nnnc2N1 (stereo not shown),-3.23
18,CCN1CCN(C(=O)c2cc3c(C)nc4ccccc4c3o2)CC1,1.62
19,CCN1CCN(CC(O)COc2ccc(Cl)cc2C)CC1 (stereo not shown),-4.16
20,CC(=O)c1cc2c(cc1NC(=O)C(C)Oc1ccccc1)OCO2 (stereo not shown),-4.49
